This note sets out measurements from the supplement of paper PMC8728848.

The list shows a part of the results.

Common to all, as to assay: glycan array binding signal (z-score within array); higher = stronger binding
Common to all, as to conditions: glycan notation: IUPAC condensed, linker removed

In assay [1] the target is Gal(b1-4)GlcNAc(b1-3)Gal(b1-4)GlcNAc(b1-2)[Gal(b1-4)GlcNAc(b1-3)Gal(b1-4)GlcNAc(b1-6)]Man(a1-6)[Gal(b1-4)GlcNAc(b1-3)Gal(b1-4)GlcNAc(b1-2)Man(a1-3)]Man(b1-4)GlcNAc(b1-4)GlcNAc. The gist of the method:
(§1)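 Glycan array binding is given as a within-array Z-score, which can be read as non-binding when negative. The arrays, 3228 of them, came from the Consortium for Functional Glycomics database and were retained only where the protein sequence was available. Z-scores were averaged across arrays of the same protein sequence at different concentrations or buffers and across linkers.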

Assay [2] addresses Gal(b1-4)GlcNAc(b1-3)Gal(b1-4)GlcNAc(b1-2)[Gal(b1-4)GlcNAc(b1-3)Gal(b1-4)GlcNAc(b1-6)]Man(a1-6)[Gal(b1-4)GlcNAc(b1-3)Gal(b1-4)GlcNAc(b1-2)Man(a1-3)]Man(b1-4)GlcNAc(b1-4)[Fuc(a1-6)]GlcNAc. The gist of the method:
as §1

Assay [3] addresses Gal(b1-4)GlcNAc(b1-3)Gal(b1-4)GlcNAc(b1-3)Gal(b1-4)GlcNAc. In outline: as §1
For assay [4], the target named is Gal(b1-4)GlcNAc(b1-3)Gal(b1-4)GlcNAc(b1-3)Gal(b1-4)GlcNAc(b1-2)Man(a1-3)[Gal(b1-4)GlcNAc(b1-3)Gal(b1-4)GlcNAc(b1-3)Gal(b1-4)GlcNAc(b1-2)Man(a1-6)]Man(b1-4)GlcNAc(b1-4)GlcNAc. In outline: as §1
Assay [5] concerns the target Gal(b1-4)GlcNAc(b1-3)Gal(b1-4)GlcNAc(b1-3)Gal(b1-4)GlcNAc(b1-2)Man(a1-3)[Gal(b1-4)GlcNAc(b1-3)Gal(b1-4)GlcNAc(b1-3)Gal(b1-4)GlcNAc(b1-2)Man(a1-6)]Man(b1-4)GlcNAc(b1-4)[Fuc(a1-6)]GlcNAc. In outline: as §1
Assay [6] has as its target Gal(b1-4)GlcNAc(b1-3)Gal(b1-4)GlcNAc(b1-3)Gal(b1-4)GlcNAc(b1-2)[Gal(b1-4)GlcNAc(b1-3)Gal(b1-4)GlcNAc(b1-3)Gal(b1-4)GlcNAc(b1-6)]Man(a1-6)[Gal(b1-4)GlcNAc(b1-3)Gal(b1-4)GlcNAc(b1-3)Gal(b1-4)GlcNAc(b1-2)Man(a1-3)]Man(b1-4)GlcNAc(b1-4)[Fuc(a1-6)]GlcNAc. In outline:
as §1

Assay [7] addresses Gal(b1-4)GlcNAc(b1-3)Gal(b1-4)GlcNAc(b1-3)Gal(b1-4)GlcNAc(b1-3)Gal(b1-4)GlcNAc(b1-2)Man(a1-3)[Gal(b1-4)GlcNAc(b1-3)Gal(b1-4)GlcNAc(b1-3)Gal(b1-4)GlcNAc(b1-3)Gal(b1-4)GlcNAc(b1-2)Man(a1-6)]Man(b1-4)GlcNAc(b1-4)GlcNAc. The gist of the method: as §1
Assay [8] has as its target Gal(b1-4)GlcNAc(b1-3)Gal(b1-4)GlcNAc(b1-3)Gal(b1-4)GlcNAc(b1-3)Gal(b1-4)GlcNAc(b1-2)Man(a1-3)[Gal(b1-4)GlcNAc(b1-3)Gal(b1-4)GlcNAc(b1-3)Gal(b1-4)GlcNAc(b1-3)Gal(b1-4)GlcNAc(b1-2)Man(a1-6)]Man(b1-4)GlcNAc(b1-4)[Fuc(a1-6)]GlcNAc. The gist of the method: as §1
Assay [9] addresses Gal(b1-4)GlcNAc(b1-3)Gal(b1-4)GlcNAc(b1-3)Gal(b1-4)GlcNAc(b1-3)Gal(b1-4)GlcNAc(b1-2)[Gal(b1-4)GlcNAc(b1-3)Gal(b1-4)GlcNAc(b1-3)Gal(b1-4)GlcNAc(b1-3)Gal(b1-4)GlcNAc(b1-6)]Man(a1-6)[Gal(b1-4)GlcNAc(b1-3)Gal(b1-4)GlcNAc(b1-3)Gal(b1-4)GlcNAc(b1-3)Gal(b1-4)GlcNAc(b1-2)Man(a1-3)]Man(b1-4)GlcNAc(b1-4)[Fuc(a1-6)]GlcNAc. The gist of the method: as §1
Assay [10] concerns the target Gal(b1-4)GlcNAc(b1-3)Gal(b1-4)GlcNAc(b1-3)Gal(b1-4)GlcNAc(b1-3)Gal(b1-4)GlcNAc(b1-3)Gal(b1-4)GlcNAc(b1-2)Man(a1-3)[Gal(b1-4)GlcNAc(b1-3)Gal(b1-4)GlcNAc(b1-3)Gal(b1-4)GlcNAc(b1-3)Gal(b1-4)GlcNAc(b1-3)Gal(b1-4)GlcNAc(b1-2)Man(a1-6)]Man(b1-4)GlcNAc(b1-4)GlcNAc. The gist of the method:
as §1

The target in assay [11] is Gal(b1-4)GlcNAc(b1-3)Gal(b1-4)GlcNAc(b1-3)Gal(b1-4)GlcNAc(b1-3)Gal(b1-4)GlcNAc(b1-3)Gal(b1-4)GlcNAc(b1-2)Man(a1-3)[Gal(b1-4)GlcNAc(b1-3)Gal(b1-4)GlcNAc(b1-3)Gal(b1-4)GlcNAc(b1-3)Gal(b1-4)GlcNAc(b1-3)Gal(b1-4)GlcNAc(b1-2)Man(a1-6)]Man(b1-4)GlcNAc(b1-4)[Fuc(a1-6)]GlcNAc. In outline: as §1
Assay [12] addresses Gal(b1-4)GlcNAc(b1-3)Gal(b1-4)GlcNAc(b1-3)Gal(b1-4)GlcNAc(b1-3)Gal(b1-4)GlcNAc(b1-3)Gal(b1-4)GlcNAc(b1-2)[Gal(b1-4)GlcNAc(b1-3)Gal(b1-4)GlcNAc(b1-3)Gal(b1-4)GlcNAc(b1-3)Gal(b1-4)GlcNAc(b1-3)Gal(b1-4)GlcNAc(b1-6)]Man(a1-6)[Gal(b1-4)GlcNAc(b1-3)Gal(b1-4)GlcNAc(b1-3)Gal(b1-4)GlcNAc(b1-3)Gal(b1-4)GlcNAc(b1-3)Gal(b1-4)GlcNAc(b1-2)Man(a1-3)]Man(b1-4)GlcNAc(b1-4)[Fuc(a1-6)]GlcNAc. In outline:
as §1

For assay [13], the target named is Gal(b1-4)GlcNAc(b1-3)Gal(b1-4)GlcNAc(b1-3)Gal(b1-4)GlcNAc(b1-3)Gal(b1-4)GlcNAc(b1-3)Gal(b1-4)GlcNAc(b1-3)Gal(b1-4)GlcNAc(b1-2)Man(a1-3)[Gal(b1-4)GlcNAc(b1-3)Gal(b1-4)GlcNAc(b1-3)Gal(b1-4)GlcNAc(b1-3)Gal(b1-4)GlcNAc(b1-3)Gal(b1-4)GlcNAc(b1-3)Gal(b1-4)GlcNAc(b1-2)Man(a1-6)]Man(b1-4)GlcNAc(b1-4)GlcNAc. In outline: as §1
The target of assay [14] is Gal(b1-4)GlcNAc(b1-3)Gal(b1-4)GlcNAc(b1-3)GalNAc. The gist of the method: as §1
For assay [15], the target named is Gal(b1-4)GlcNAc(b1-3)Gal(b1-4)GlcNAc(b1-3)[Gal(b1-4)GlcNAc(b1-3)Gal(b1-4)GlcNAc(b1-6)]GalNAc. The gist of the method: as §1
For assay [16], the target named is Gal(b1-4)GlcNAc(b1-3)Gal(b1-4)GlcNAc(b1-6)[Gal(b1-3)]GalNAc. The gist of the method:
as §1

The target of assay [17] is Gal(b1-4)GlcNAc(b1-3)Gal(b1-4)[Fuc(a1-3)]GlcNAc(b1-3)Gal(b1-4)[Fuc(a1-3)]GlcNAc. In outline:
as §1

Assay [18] deals with Gal(b1-4)GlcNAc(b1-3)GalNAc. In outline: as §1
Assay [19] has as its target Gal(b1-4)GlcNAc(b1-3)[Fuc(a1-3)GlcNAc(b1-6)]Gal(b1-4)Glc. In outline: as §1
Assay [20] concerns the target Gal(b1-4)GlcNAc(b1-3)[Gal(b1-4)GlcNAc(b1-6)]Gal(b1-4)GlcNAc. In outline: as §1
Assay [21] addresses Gal(b1-4)GlcNAc(b1-3)[GlcNAc(b1-6)]Gal(b1-4)GlcNAc. In outline:
as §1

The target in assay [22] is Gal(b1-4)GlcNAc(b1-6)Gal(b1-4)GlcNAc. In outline:
as §1

B1: Langerin K313I (Homo sapiens), Q9UJ71 (protein)
chain: STLNAQIPELKSDLEKASALNTKIRALQGSLENMSKLLKRQNDILQVVSQGWKYFKGNFYYFSLIPKTWYSAEQFCVSRNSHLTSVTSESEQEFLYKTAGGLIYWIGLTKAGMEGDWSWVDDTPFNKVQSARFWIPGEPNNAGNNEHCGNIKAPSLQAWNDAPCDITFLFICKRPYVPSEP
In the case of B1, the “glycan array binding signal (z-score)” value is 0.318 in [1]; 0.352 in [2]; -0.303 in [3]; 0.346 in assay [4]; 0.227 in [5]; 0.251 in assay [6]. The “glycan array binding signal (z-score)” value in [7] was 0.149; in assay [8], 0.134; in assay [9] it was 0.147; in assay [10], -0.011; in assay [11], -0.085; in assay [12], 0.369. In addition, the “glycan array binding signal (z-score)” value in assay [13] was 0.037; in assay [14] it was -0.006; in [15] it was 0.191; in assay [16], 0.134; in assay [17], -0.16; in [18], -0.373. The “glycan array binding signal (z-score)” value in [19] was -0.384; in assay [20], -0.354; in assay [21], -0.314; in [22], -0.4.
